Each structure is given as a SMILES string. Several values for one entry are separate records, joined by “and”; a condition that tells them apart may be missing. Equal entries are not always repeated. The full ranking holds about 110,000 compounds; the median of “z-score” is about -0.1, and the highest 2% start at about 2. This is one part of the list. Activity calls are given as the source filed them.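 How the source made its calls: active means z-score in the third read window above 3 or below -3; inactive means the rest.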

This assay deals with Metabotropic glutamate receptor 8 (Rattus norvegicus) (UniProt P70579). The experiment in a line: rat mGluR8 modulators via GIRK flux, primary screen, cell-based, thallium flux, HTS (AID 488969). The following applies: HEK293 rat mGluR8, GIRK (G protein-gated inwardly rectifying potassium channel) thallium flux, FluoZin2; at 10 µM; stronger effect = higher value; submaximal glutamate (EC20) added with thallium.
Chain of UniProt P70579 (P70579 whole entry, looked up): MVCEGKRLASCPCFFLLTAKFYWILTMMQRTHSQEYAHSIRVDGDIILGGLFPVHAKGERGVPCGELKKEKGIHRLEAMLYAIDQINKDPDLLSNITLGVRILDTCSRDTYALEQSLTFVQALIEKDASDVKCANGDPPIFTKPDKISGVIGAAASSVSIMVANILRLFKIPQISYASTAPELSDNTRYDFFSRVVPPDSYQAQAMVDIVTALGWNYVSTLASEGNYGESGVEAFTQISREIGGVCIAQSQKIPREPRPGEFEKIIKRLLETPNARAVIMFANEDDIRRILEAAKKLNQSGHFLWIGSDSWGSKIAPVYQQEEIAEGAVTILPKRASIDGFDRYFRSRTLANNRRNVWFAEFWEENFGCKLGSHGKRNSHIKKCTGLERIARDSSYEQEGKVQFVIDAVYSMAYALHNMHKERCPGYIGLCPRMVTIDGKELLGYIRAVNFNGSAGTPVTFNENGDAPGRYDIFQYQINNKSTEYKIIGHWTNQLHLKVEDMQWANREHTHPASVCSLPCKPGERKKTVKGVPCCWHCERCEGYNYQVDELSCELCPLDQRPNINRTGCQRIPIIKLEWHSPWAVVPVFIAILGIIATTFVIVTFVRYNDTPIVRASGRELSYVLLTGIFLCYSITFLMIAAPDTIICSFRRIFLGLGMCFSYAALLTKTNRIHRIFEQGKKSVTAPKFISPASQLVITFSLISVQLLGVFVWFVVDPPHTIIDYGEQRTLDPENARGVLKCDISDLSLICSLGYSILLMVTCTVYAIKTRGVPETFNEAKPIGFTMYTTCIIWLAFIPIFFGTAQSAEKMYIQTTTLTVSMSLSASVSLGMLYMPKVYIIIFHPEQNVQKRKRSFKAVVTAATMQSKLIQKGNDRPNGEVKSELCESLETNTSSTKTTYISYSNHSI
Compound `C=CCn1c(=O)/c(=C/c2ccc(C)o2)s/c1=C(/C#N)C(=O)c1ccccc1` returned a z-score of 0.324.

`CC(C)(C)c1ccc(NC(=O)COC(=O)c2ccc([N+](=O)[O-])s2)cc1` displayed a z-score of 2.01.

In the case of `COc1ccc2c(CC(=O)OCC(=O)Nc3ccccc3[N+](=O)[O-])coc2c1`, the z-score was -0.0851.

For the compound `CCOC(=O)c1cc2sccc2n1CC(=O)O`, the z-score stood at 0.32.

For the compound `Cn1c(=O)oc2cc(S(=O)(=O)NCCN3CCCCCC3)ccc21`, the z-score is -0.0401.

Take `Cc1cc(C(=O)Nc2cccc(/C=C/C(=O)O)c2)c(C)o1`: the z-score was -0.27.

As to `CCCCN1C(=O)/C(=C2/C=CC=CN2C)SC1=S`, the z-score was 1.05.

In the case of `CCOc1ccc(CN=C(N)N=C(N)N)cc1Cl`, the z-score was -0.0998.

Turning to `Cn1c(NC(=O)c2ccccc2)cc(=O)n(C)c1=O`, the z-score is -0.106.

The compound `CCOc1ccccc1/C=N/NC(=O)c1ccc(Cn2cc([N+](=O)[O-])cn2)o1` showed a z-score of -0.791.

With `Cn1ncc([N+](=O)[O-])c1C(=O)Nc1ccc(-c2nc3ccccc3[nH]2)cc1`, the z-score is -0.199.

`O=C1C2C3C=CC(C4CC34)C2C(=O)N1/N=C/c1cccs1` (stereo unspecified) showed a z-score of 0.0622.

Turning to `N#Cc1ccc(COC(=O)CSc2nnc(N)s2)cc1`, the z-score is -0.312.

Compound `Cn1c(=O)c2c(-c3ccccc3)n(-n3cnnc3)cc2n(C)c1=O` gave a z-score of 1.23.

`COc1ccc(CNC(=O)C2CCC(CNc3c(N4CCOCC4)c(=O)c3=O)CC2)cc1` (stereo unspecified) came in with a z-score of -0.657.

Compound `CCC(=O)Nc1c(C(=O)N2CCCCCC2)cnn1-c1ccc(C)c(C)c1` had a z-score of 2.47.

Regarding `O=S(=O)(c1ccc(SCCO)nc1)N1CCCC1`, the z-score is 0.323.

The compound `CN(C)CCNc1oc(COc2ccc(Cl)cc2Cl)nc1C#N` had a z-score of -0.0733.

As for `CC1S/C(=C(\C#N)C(N)=O)N(c2ccc(F)cc2)C1=O` (stereo unspecified), the z-score is 0.0104.

In turn, `c1ccc(C2(c3ccccc3)OCC(Cn3cncn3)O2)cc1` (stereo unspecified) displayed a z-score of 0.218.

Regarding `CN(CCCNC(=O)c1cccn2c(=O)c3ccccc3nc12)Cc1ccccc1`, the z-score is -0.212.

The compound `C=CCn1c(C)cc(C(=O)CN2C(=O)NC3(CCCc4ccccc43)C2=O)c1C` (stereo unspecified) came in with a z-score of 0.483.

For the compound `CCCCNC(=O)CN(c1cc(C(F)(F)F)ccc1Cl)S(C)(=O)=O`, the z-score was -0.33.

Regarding `O=C(CSCc1cccc(Cl)c1)NCc1ccc2c(c1)OCO2`, the z-score is -0.0208.

As for `CCOc1ccc2nc(NC(=O)CCC(=O)c3cccs3)sc2c1`, the z-score worked out at 0.357.

In the case of `Cc1ccc(-n2ncc3c(=O)n(Cc4ccccn4)cnc32)cc1C`, the z-score was -0.336.

Take `CN(CCOc1ccc(-c2ccn(S(=O)(=O)c3ccc(Cl)cc3)n2)cc1)c1ccccn1`: the z-score was determined as 0.363.

Take `O=C(CP(=O)(c1ccccc1)c1ccccc1)N1CCCCC1`: the z-score is -0.254.

Turning to `COc1ccc(OC)c(S(=O)(=O)N2CCC(C(=O)Nc3cccc(C)c3)CC2)c1`, the z-score was -0.141.

Take `CN(C)c1ccc(C(c2nnnn2C2CCCCC2)N2CCN(C(=O)c3ccco3)CC2)cc1` (stereo unspecified): the z-score was determined as 0.885.

`O=C(O)C(CCCCN1C(=O)c2ccccc2C1=O)N1C(=O)c2ccccc2C1=O` (stereo unspecified): the z-score worked out at 0.0681.

On to `COC(CNc1cc(=O)oc2ccccc12)OC`, for which the z-score is 0.158.

As for `CCN(CC)c1cc(Oc2ccccc2)ncn1`, the z-score was -0.146.

The compound `Cc1cccc(N2CCN(C(=O)CC(NC(=O)c3ccccc3)c3ccccc3)CC2C)c1` (stereo unspecified) yielded a z-score of -0.215.

For the compound `CC(/C=C\c1cccnc1)=C/C(=O)O`, the z-score was -0.175 and active: 6.26.

For `CC(C)N1C2OC(C3OC4C(O3)N(C(C)C)S(=O)(=O)N4C(C)C)OC2N(C(C)C)S1(=O)=O` (stereo unspecified), the z-score was -0.13.

`CN1Cc2cccc3c2C(Cc2ccccc2S3)C1` (stereo unspecified) displayed a z-score of -0.0777.

Compound `O=C(Cn1c(CO)nc2ccccc21)Nc1cc(C(F)(F)F)ccc1N1CCOCC1` came in with a z-score of -0.215.

`Cc1cc(NC(=O)/C=C/c2ccccc2Cl)n(-c2nc3ccccc3[nH]2)n1` had a z-score of 0.0437.

The compound `NC1=NC(c2cccc(O)c2)n2c(nc3ccccc32)N1` (stereo unspecified) gave a z-score of -0.0067.

Compound `Cc1cc(Cl)ccc1Oc1nc(-c2ccccc2)ncc1S(C)(=O)=O` had a z-score of -0.305.

On to `CCOC(=O)N1CCN(c2c(N3CCN(c4ccc(OC)cc4)CC3)c(=O)c2=O)CC1`, for which the z-score was -0.279.

For `COc1ccccc1N(CC(=O)Nc1ccc2c(c1)OCO2)S(=O)(=O)c1ccccc1`, the z-score was -0.821.

As for `CC12CCC(C(=O)N3CCCc4ccccc43)(CC1=O)C2(C)C` (stereo unspecified), the z-score is active: 3.5.

Compound `COc1cc(-c2ccccc2)nc(N)n1` had a z-score of 0.855.

`O=C(CN1CC[n+]2c(-c3cccs3)csc21)c1ccc(Br)cc1` gave a z-score of 0.365.

As for `CN(C)S(=O)(=O)c1ccc(Cl)c(C(=O)OCC(=O)NC(=O)c2cccn2C)c1`, the z-score was -0.34.

Regarding `CCOc1cc(NC(=S)Nc2ccccc2)c(OCC)cc1NC(=O)c1ccccc1`, the z-score was -0.0523.

Regarding `CC(C)(C)n1nnnc1C(c1cccs1)N1CCCc2ccccc21` (stereo unspecified), the z-score is -0.607.

As for `CN1C(=O)c2ccccc2C(C(=O)NCCCN2CCCC2)C1c1c[nH]c2ccccc12` (stereo unspecified), the z-score is 0.231.

Regarding `COc1cc(-n2c(C)nc3cc(C(=O)NCc4ccco4)ccc32)cc(OC)c1OC`, the z-score was determined as 1.11.

Consider `COc1ccc(-n2nnnc2-c2cn(C)nc2C(F)(F)F)cc1`, for which the z-score was -0.0899.

As to `COc1ccc(C(=O)Nc2ccc3oc(-c4cccc(F)c4)nc3c2)cc1OC`, the z-score was 0.0486.

In turn, `O=C(c1ccccc1)c1sc(N2CCCCCC2)nc1-c1ccccc1` registered a z-score of -0.175.

Turning to `CC1(C)C(=O)Nc2ccccc2N1C(=O)COC(=O)C12CC3CC(CC(O)(C3)C1)C2`, the z-score was -0.0676.

Regarding `Cc1ccc(OC(=O)N2CCOCC2)cc1`, the z-score stood at 0.226.

Compound `CCOC(=O)N1CCN(CC(=O)n2c(C)c(C)c3ccccc32)CC1` registered a z-score of 1.1.

As for `COC(=O)[C@H](CCSC)NC(=O)N1CCN(c2cccc(C(F)(F)F)c2)CC1`, the z-score is -1.13.

In turn, `Cc1ccc(C(=O)C2C(c3ccc(-c4ccccc4[N+](=O)[O-])o3)NC(=O)NC2(O)C(F)(F)F)cc1` (stereo unspecified) yielded a z-score of 0.305.

`N#Cc1cn(CC(=O)NCc2cccnc2)c2ccccc12` showed a z-score of -0.104.

In the case of `O=C(O)c1cc(CN2CCOCC2)oc1-c1ccccc1`, the z-score came to 0.271.

For `CCOc1ccc(Br)cc1S(=O)(=O)Nc1ccc(Cl)c(S(=O)(=O)N(CC)c2ccccc2)c1`, the z-score was -0.145.

For `CCOc1ccccc1N1CCN(c2nc(N)c(C#N)c(CC#N)c2C#N)CC1`, the z-score was -2.53.

`CCOC(=O)C1=C(C)NC(=O)NC1c1ccc(OC(=O)c2ccco2)cc1` (stereo unspecified) returned a z-score of 0.2.

In the case of `CCOC(=O)C1CCN(C(=O)c2sc3ncnc(N4CCC(C)CC4)c3c2C)CC1`, the z-score is -0.496.

As to `O=C(/C=C/Nc1ccccc1Br)c1ccccn1`, the z-score is -0.307.

Take `COC(=O)CN(C#N)c1nc(SC)nc(N(C)C)n1`: the z-score was -0.674.

Compound `CCCCCCOc1ccc(OC(=O)c2ccncc2)cc1` had a z-score of -0.355.

For the compound `COc1ccccc1C(O)(C(=O)NNc1ccccc1C)c1ccccc1OC`, the z-score is -0.123.

`O=C(CSc1nnc(-c2ccncc2)n1Cc1ccco1)c1ccc(Cl)cc1` returned a z-score of -0.516.

For `CC1(C)OC(=O)N2CCc3ccccc3C21C` (stereo unspecified), the z-score was -0.43.

`Cc1ccc2c(c1)c1c(n2CC(O)CNC(C)(C)C)CCCC1` (stereo unspecified) yielded a z-score of 2.4.

The compound `CCN(c1ccccc1)S(=O)(=O)c1ccc(F)cc1C` yielded a z-score of -0.392.

Take `CC(=O)Nc1ccc(S(=O)(=O)NCCc2ccc(F)cc2)cc1`: the z-score is -0.135.

Compound `COCCn1c(SCC(=O)NC(=O)NC(C)C)nc2ccccc21` displayed a z-score of -0.123.

As to `COc1ccc(NC(=S)NCc2ccc(S(N)(=O)=O)cc2)c(OC)c1`, the z-score was 0.136.

Turning to `CCCn1c(SCC(=O)NC(C)C23CC4CC(CC(C4)C2)C3)n[nH]c1=O` (stereo unspecified), the z-score was 0.0276.

In turn, `CCOC(=O)N1CCN(Cc2nc3c(c(=O)n(C)c(=O)n3C)n2CCCc2ccccc2)CC1` came in with a z-score of -0.265.

`COc1cccc(N=Cc2c[nH][nH]c2=O)c1` showed a z-score of -0.323.

Consider `CC1CCc2nn(CC(=O)N3CCc4ccccc43)cc2C1` (stereo unspecified), for which the z-score came to 0.16.

For `CC(=O)c1ccc(OC(=O)C2CC(=O)N(c3cccc(C)c3)C2)cc1` (stereo unspecified), the z-score was -1.58.

Regarding `Cc1ccc(-c2nc3cnccn3c2Nc2ccc3c(c2)OCO3)cc1`, the z-score was -0.0623.

Compound `O=C(NC(Cc1c[nH]c2ccccc12)C(=O)Nc1ccc(OC(F)(F)F)cc1)c1cccs1` (stereo unspecified) returned a z-score of -0.131.

`CCOC(=O)N1CCC(Nc2c(N3CCN(c4cc(Cl)ccc4C)CC3)c(=O)c2=O)CC1`: the z-score was -2.82.

As for `COc1ccc(-c2noc(CCCOc3ccc(Cl)cc3Cl)n2)cc1`, the z-score is -0.158.

`CC1CN(c2cc(-c3ccccc3)c3ccccc3n2)CC(C)O1` (stereo unspecified) yielded a z-score of -0.832.

Compound `O=C(Cn1nnc(-c2ccccc2)n1)N/N=C/c1ccc(-c2ccc(Cl)cc2)o1` displayed a z-score of -0.788.

For the compound `CCN1CCN(Cc2c(C)[nH]c3ccc(C(=O)OC)cc3c2=O)CC1`, the z-score came to 0.325.

In the case of `C=CCn1c(SCc2csc(C)n2)nc2scc(-c3ccc(C)o3)c2c1=O`, the z-score was -0.206.

Take `CCOC(=O)Cc1csc(NC(=O)CSc2nnc(C3CC3)n2C)n1`: the z-score stood at 0.34.

As to `CC(CC(=O)Nc1ccc2c(c1)OCCO2)c1ccccc1` (stereo unspecified), the z-score is -0.222.

In the case of `CCC(C)C(NS(=O)(=O)c1ccc(C)cc1)C(=O)Oc1ccc2c3c(c(=O)oc2c1)CCC3` (stereo unspecified), the z-score is -0.384.

For the compound `CS(=O)(=O)c1ccc2nc(NC(=O)Nc3ccc(Cl)c(Cl)c3)sc2c1`, the z-score is active: 3.23.

`Cc1cc2cc(C)c3nnc(SCC(=O)NCc4ccc5c(c4)OCO5)n3c2cc1C` gave a z-score of -0.28.

For `COc1ccc(CNC(=O)C2CCCN(c3nc4ccccc4o3)C2)c(OC)c1` (stereo unspecified), the z-score was determined as 0.18.

`CCC1CCc2c(sc(NC(=O)C3c4ccccc4Oc4ccccc43)c2C(N)=O)C1` (stereo unspecified) showed a z-score of -0.292.

`c1ccc2c(c1)OCC(c1nnc3sc(-c4ccc5c(c4)OCO5)nn13)O2` (stereo unspecified) returned a z-score of -1.12.

Take `COc1cc2c(cc1NC(=S)Nc1cccc3ccccc13)oc1ccccc12`: the z-score stood at 0.159.

In the case of `COc1ccnc(NCc2cccc(C(F)(F)F)c2)c1C#N`, the z-score was -0.304.

In the case of `CC(C)c1ccc(N(CC(=O)O)S(=O)(=O)c2cccnc2)cc1`, the z-score was -0.545.

In turn, `O=C(CC1C(=O)N(c2ccc(Cl)cc2)C(=S)N1CCc1ccncc1)Nc1ccc(F)cc1` (stereo unspecified) yielded a z-score of -0.12.

For the compound `CN(C(=O)CSc1nnc2ccccn12)c1c(N)n(Cc2ccccc2)c(=O)[nH]c1=O`, the z-score was -0.124.

For `Cc1ccc(N(C(=O)CS(=O)CC(=O)Nc2ccc(F)cc2)C(C(=O)NC2CCCCC2)c2ccco2)cc1` (stereo unspecified), the z-score was -0.219.

Regarding `O=C(c1ccc(Cl)cc1)c1cnc(Nc2ccccc2Cl)s1`, the z-score was found to be 0.181.

`O=C(Cc1cccs1)OCC(=O)c1ccco1` yielded a z-score of 0.297.

`COc1ccc(NC(=O)CSc2nc(C)c3c(c2C#N)CCCC3)cc1` showed a z-score of -1.09.

Values taken from PubChem BioAssay AID488969 (Vanderbilt High Throughput Screening Facility, 2010).
